{
  "source": "patent US20250333541A1",
  "about": "“ANTIBODY, AND DRUG CONJUGATE AND USE THEREOF” (EVOPOINT BIOSCIENCES CO., LTD., priority 2022, published 2025)",
  "key": {"h.TF-His [1]": {"target": "T1, h.TF-His (Homo sapiens, UniProt P13726)", "T1 construct": "with the extracellular segment of aa 33-aa 251; His; made in house; host or cells: HEK293-EBNA", "T1 sequence (P13726 33-251)": "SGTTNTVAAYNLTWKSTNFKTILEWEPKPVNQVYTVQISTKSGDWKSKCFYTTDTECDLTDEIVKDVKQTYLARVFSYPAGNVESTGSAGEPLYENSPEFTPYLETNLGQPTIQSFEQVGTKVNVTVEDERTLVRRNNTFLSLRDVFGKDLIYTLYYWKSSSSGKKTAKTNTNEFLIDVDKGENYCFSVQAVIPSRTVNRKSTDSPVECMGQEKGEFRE", "assay": "Antigenic protein-based ELISA on human TF-His", "format": "binding"}, "c.TF-His [2]": {"system": "c.TF-His", "assay": "Antigenic protein-based ELISA on cynomolgus monkey TF-His", "format": "binding", "conditions": "coated cynomolgus monkey TF-his protein"}, "[3]": {"system": "TF antigen-positive NCI-H358 cells", "assay": "Cell-based ELISA on NCI-H358 cells", "conditions": "fixed NCI-H358 cells"}, "[4]": {"assay": "Antibody hydrophilicity/hydrophobicity assay by HIC", "format": "physicochemical", "conditions": "retention on hydrophobic chromatography column"}, "[5]": {"system": "TF low/medium-expressing cell line NCI-H358", "assay": "Flow cytometry cell binding, NCI-H358", "format": "cell-based"}, "[6]": {"system": "TF high-expressing cell line KYSE520", "assay": "Flow cytometry cell binding, KYSE520", "format": "cell-based"}, "h.TF-His [7]": {"target": "T1, h.TF-His", "assay": "Dynamic affinity by ForteBio, human TF-His", "format": "binding"}, "c.TF-His [8]": {"system": "c.TF-His", "assay": "Dynamic affinity by ForteBio, cynomolgus TF-His", "format": "binding, cynomolgus monkey"}, "NCI-H358 cells": {"system": "NCI-H358 cells", "assay": "Endocytic activity by flow cytometry (FACS)", "format": "cell-based"}, "[9]": {"system": "coagulation initiated by TF on the cell surface (MDA-MB-231 cells)", "assay": "Effect on coagulation initiated by TF-positive cells in human plasma", "format": "cell-based", "conditions": "combining the results of the two experiments"}, "[10]": {"assay": "Serum stability in human serum", "format": "in vitro ADME", "conditions": "20 μg/mL, 37° C., 14 days, ELISA"}, "TF antigen": {"target": "T2, TF antigen (Homo sapiens, UniProt P13726)", "T2 construct": "with the extracellular segment of aa 33-aa 251; His; made in house; host or cells: HEK293-EBNA", "T2 sequence (P13726 33-251)": "as above", "assay": "Affinity ELISA before and after conjugation with B81", "format": "binding", "conditions": "antibody before and after conjugation with B81 (DL-01), DAR8 method"}, "[11]": {"system": "TF-positive tumor cells KYSE520", "assay": "In vitro killing activity assay on ADCs", "format": "cell-based", "conditions": "after the conjugation with B81, 120 h, CCK8"}, "[12]": {"system": "subcutaneous KYSE520 xenograft", "assay": "In vivo efficacy in subcutaneous KYSE520 xenograft", "design": "species or system Balb/c Nude mice", "conditions": "after the conjugation with B81"}},
  "data": [
    {"molecule": "27H8H3-hz1 (antibody) heavy: QVQLVQSGAEVKKPGASVKVSCKASGYTFTTYWMHWVRQAPGQGLEWMGMIDPSDSYTSYAQKFQGRVTLTVDTSTSTAYMELSSLRSEDTAVYYCTRGSGPGLFAYWGQGTLVTVSS[sequence of human IgG1 constant region omitted] light: DIQETQSPSSLSASVGDRVTITCRASQGISNYLNWYQQKPGKAPKLLIYHTSRLHSGVPSRFSGSVSGTDFTLTISSLQPEDFATYFCQQGNTLPYTFGQGTKVEIKRTVAAPSVFIFPPSDEQLKSGTASVVCLLNNFYPREAKVQWKVDNALQSGNSQESVTEQDSKDSTYSLSSTLTLSKADYEKHKVYACEVTHQGLSSPVTKSFNRGEC", "values": [
      {"measurement": "h.TF-His EC50", "setting": "h.TF-His [1]; coated human TF-his protein", "result": 0.008147, "unit": "µg/mL"},
      {"measurement": "binding activity (in words)", "setting": "h.TF-His [1]; to human/cynomolgus TF-his and TF-positive cells", "result": "good binding activity"},
      {"measurement": "c.TF-His EC50", "setting": "c.TF-His [2]", "result": 0.01137, "unit": "µg/mL"},
      {"measurement": "NCI-H358 EC50", "setting": "[3]", "result": 0.03479, "unit": "µg/mL"},
      {"measurement": "HIC", "setting": "[4]", "result": 10.43, "unit": "min"},
      {"measurement": "NCI-H358 EC50", "setting": "[5]", "result": 0.09906, "unit": "µg/mL"},
      {"measurement": "KYSE520 EC50", "setting": "[6]", "result": 0.05943, "unit": "µg/mL"},
      {"measurement": "ka", "setting": "h.TF-His [7]", "result": 273000, "unit": "M⁻¹ s⁻¹"},
      {"measurement": "kdis", "setting": "h.TF-His [7]", "result": 0.0116, "unit": "s⁻¹"},
      {"measurement": "ka", "setting": "c.TF-His [8]", "result": 295000, "unit": "M⁻¹ s⁻¹"},
      {"measurement": "kdis", "setting": "c.TF-His [8]", "result": 0.0125, "unit": "s⁻¹"},
      {"measurement": "endocytosis rate compared with reference antibody (in words)", "setting": "NCI-H358 cells", "result": "superior to that of the reference antibody"},
      {"measurement": "effect on human coagulation (in words)", "setting": "[9]", "result": "least effect on human coagulation"},
      {"measurement": "change in affinity after storage in human serum", "setting": "[10]", "result": "no significant change in affinity"},
      {"measurement": "EC50", "setting": "TF antigen", "result": 0.00313, "unit": "µg/mL"},
      {"measurement": "killing IC50 compared with reference antibody ADC (in words)", "setting": "[11]", "result": "substantially comparable to that of the reference antibody ADC"},
      {"measurement": "anti-tumor effects in mice (in words)", "setting": "[12]", "result": "good anti-tumor effects"}
    ]}
  ]
}
